Assay results published in US7619005B2, “Methods for treating cognitive impairment in humans with Multiple Sclerosis” (Cognition Pharmaceuticals LLC, priority 2000, dated 2009).

Test system: rats
Assay: Inhibitory Avoidance task, normal rats

## C[C@H](N)Cc1ccccc1 [(S)-(+)-amphetamine, reference compound]
About 2 mg/kg, thirty minutes prior to training (FIG. 1)
  retention of the IA task: improved retention of the task
About 0.25, about 0.50 and about 1.0 mg/kg, thirty minutes prior to training (FIG. 1)
  retention of the IA task: had no effect
Second experiment, about 2.0 mg/kg (FIG. 2), unpaired t-test p<0.01
  retention of the IA task: significantly improved retention of the task
